The values below come from the supplement of paper PMC9446081.

Hit rate of the full screen: of about 39,000 compounds, about 220 (0.56%) showed activity. The list shows a part of the results.
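Also: static incubation at 37 °C against the wild-type strain, values averaged over two biological replicates.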

The assay has as its system Escherichia coli K-12 BW25113. The assay can be described thus: relative growth (OD600 normalised to plate interquartile mean) (fraction); higher = less growth inhibition, active = 0.2 or less. As to conditions: 50 µM; LB; incubation time: overnight (16-24 h).
In the case of `C[C@@H]1CN([C@H](C)CO)C(=O)Cc2cc(NC(=O)CCN3CCOCC3)ccc2O[C@H]1CN(C)C(=O)NC1CCCCC1`, the relative growth was inactive: 0.987.

On to `C[C@@H]1CN([C@@H](C)CO)C(=O)c2cccc(NC(=O)Nc3ccc(C(F)(F)F)cc3)c2O[C@H]1CN(C)C(=O)Nc1ccccc1`, for which the relative growth is inactive: 0.94.

On to `COc1ccc(NC(=O)Nc2ccc3c(c2)C(=O)N([C@H](C)CO)C[C@H](C)[C@@H](CN(C)C(=O)c2ccccc2)OCCCC[C@@H](C)O3)cc1`, for which the relative growth is inactive: 0.967.

Turning to `COc1ccc(NC(=O)N(C)C[C@@H]2Oc3ccc(NC(=O)Nc4cccc5ccccc45)cc3C(=O)N([C@H](C)CO)C[C@H]2C)cc1`, the relative growth was inactive: 1.

Take `O=C(C1=C[C@H](c2coc3ccccc3c2=O)C[C@H](OCCCCO)O1)N1CCN(Cc2ccc3c(c2)OCO3)CC1`: the relative growth is inactive: 1.04.

Consider `COCCNC(=O)C[C@H]1CC[C@H]2[C@@H](COC[C@H](O)CN2S(=O)(=O)c2ccccc2C)O1`, for which the relative growth was inactive: 1.

On to `C[C@H](CO)N1C[C@H](C)[C@H](CN(C)Cc2ccc(Oc3ccccc3)cc2)Oc2ccc(NC(=O)CCC(F)(F)F)cc2CC1=O`, for which the relative growth is inactive: 0.988.

`COc1ccc(NC(C)=S)cc1C`: the relative growth was inactive: 0.995.

Consider `C[C@@H]1CN([C@H](C)CO)C(=O)c2ccccc2-c2ccccc2CO[C@@H]1CN(C)C(=O)Nc1cccc(Cl)c1Cl`, for which the relative growth is inactive: 1.01.

On to `CO[C@@H]1CN(C)C(=O)c2cc(NC(=O)Nc3ccccc3Cl)ccc2OC[C@@H](C)N(Cc2ccccc2C(=O)O)C[C@H]1C`, for which the relative growth was inactive: 1.

With `COc1ccc(-c2cccc(-c3ccc([C@H]4CC(=O)C[C@@H](c5ccccc5)C45C(=O)OC(C)(C)OC5=O)cc3)c2)cc1`, the relative growth is inactive: 1.

As to `C[C@@H]1CN([C@H](C)CO)C(=O)c2cccc(NS(=O)(=O)c3ccccc3)c2O[C@H]1CN(C)Cc1ccc(Oc2ccccc2)cc1`, the relative growth was inactive: 1.04.

On to `C[C@H]1CN([C@@H](C)CO)C(=O)c2cc(NC(=O)CCC(F)(F)F)ccc2O[C@@H]1CN(C)Cc1ccc(C(F)(F)F)cc1`, for which the relative growth is inactive: 1.04.

As for `C[C@@H]1CCCCO[C@H](CN(C)S(=O)(=O)c2cccs2)[C@@H](C)CN([C@H](C)CO)C(=O)c2cc(NS(=O)(=O)c3ccc(Cl)cc3)ccc2O1`, the relative growth was inactive: 0.977.

For `C[C@@H]1CN([C@H](C)CO)C(=O)c2cc(-c3cncnc3)cnc2O[C@@H]1CN(C)C(=O)CN1CCOCC1`, the relative growth was inactive: 1.04.

`CC(=O)OC1CC(O)C(C)(C)C2CC(OC(C)=O)C3(C)C(CCC4(C)C(c5ccoc5)OC(=O)C5OC543)C12C` (stereo unspecified): the relative growth was inactive: 1.06.
